{"source": "the supplement of paper PMC8728848", "binders": {"B1": {"name": "B1257 (Bifidobacterium sp) (protein)", "chain": "MKKSIRLVAAIAALAMTAGISACGSSTNGNQAKSDVTAQDVETALTDTSKNVELTVWAYSAKQMEPTVKAFEKKYPHIKINFVNTGAAGDHFTKFQNVVQAQKDIPDVVQMGANKFQQFAVSGALLNFANDSIEKAWSKLYTKTAWAQVHYAGGLYGAPQDATPLANYVRKDILDEHNLQVPESWEDIYNEGIKLHKEDSNKYMGILGSDISFFTNLYRSVGARLWKVNSVDDVELTMNSGKAKEFTEFLQKCLKDGVLEGGTVFTDEFNRSINDGRYATFINENWMGNTYKEQNPSLKGKMVVAAPPSWKGQPYQSSSVGSMMSVSAACPKEKQAAALAFINWLDSDKDAIQSWQDTNNGNFFMAASVYQDDENQRNKKETDGYYANDDVNAVYFDSMDKVNTDWEYLPFMSQVEVVFNDVIVPQMNENGDLVGAMAKAQQELKTYAKDNGFKVTTDAD"}}, "assay_in_all_cases": "glycan array binding signal (z-score within array); higher = stronger binding", "details_in_all_cases": "glycan notation: IUPAC condensed, linker removed", "key": {"[1]": {"biological_target": "GlcNAc(b1-3)Gal(b1-4)GlcNAc(b1-3)Gal(b1-4)GlcNAc(b1-3)GalNAc", "outline": "(§1)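 Glycan array binding is given as a within-array Z-score, which can be read as non-binding when negative. The arrays, 3228 of them, came from the Consortium for Functional Glycomics database and were retained only where the protein sequence was available. Z-scores were averaged across arrays of the same protein sequence at different concentrations or buffers and across linkers.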"}, "[2]": {"biological_target": "GlcNAc(b1-3)Gal(b1-4)GlcNAc(b1-3)GalNAc", "outline": "as §1"}, "[3]": {"biological_target": "GlcNAc(b1-3)Gal(b1-4)GlcNAc(b1-3)[GlcNAc(b1-3)Gal(b1-4)GlcNAc(b1-3)]GalNAc", "outline": "as §1"}, "[4]": {"biological_target": "GlcNAc(b1-3)Gal(b1-4)GlcNAc(b1-6)[Gal(b1-3)]GalNAc", "outline": "as §1"}, "[5]": {"biological_target": "GlcNAc(b1-3)Gal(b1-4)GlcNAc(b1-6)[GlcNAc(b1-3)Gal(b1-3)]GalNAc", "outline": "as §1"}, "[6]": {"biological_target": "GlcNAc(b1-3)Gal(b1-4)GlcNAc(b1-6)[GlcNAc(b1-3)]Gal(b1-4)GlcNAc", "outline": "as §1"}, "GlcNAc(b1-3)GalNAc": {"biological_target": "GlcNAc(b1-3)GalNAc", "outline": "as §1"}, "GlcNAc(b1-3)Man": {"biological_target": "GlcNAc(b1-3)Man", "outline": "as §1"}, "[7]": {"biological_target": "GlcNAc(b1-3)[GlcNAc(b1-4)][GlcNAc(b1-6)]GlcNAc", "outline": "as §1"}, "[8]": {"biological_target": "GlcNAc(b1-3)[GlcNAc(b1-6)]Gal(b1-4)GlcNAc", "outline": "as §1"}, "[9]": {"biological_target": "GlcNAc(b1-3)[GlcNAc(b1-6)]GalNAc", "outline": "as §1"}, "[10]": {"biological_target": "GlcNAc(b1-4)Gal(b1-4)GlcNAc", "outline": "as §1"}, "GlcNAc(b1-4)GlcNAc": {"biological_target": "GlcNAc(b1-4)GlcNAc", "outline": "as §1"}, "[11]": {"biological_target": "GlcNAc(b1-4)GlcNAc(b1-4)GlcNAc", "outline": "as §1"}, "[12]": {"biological_target": "GlcNAc(b1-4)GlcNAc(b1-4)GlcNAc(b1-4)GlcNAc(b1-4)GlcNAc", "outline": "as §1"}, "[13]": {"biological_target": "GlcNAc(b1-4)GlcNAc(b1-4)GlcNAc(b1-4)GlcNAc(b1-4)GlcNAc(b1-4)GlcNAc", "outline": "as §1"}, "[14]": {"biological_target": "GlcNAc(b1-4)[GlcNAc(b1-6)]GalNAc", "outline": "as §1"}, "[15]": {"biological_target": "GlcNAc(b1-6)Gal(b1-4)GlcNAc", "outline": "as §1"}, "GlcNAc(b1-6)GalNAc": {"biological_target": "GlcNAc(b1-6)GalNAc", "outline": "as §1"}, "[16]": {"biological_target": "GlcNAc6S(b1-3)Gal(b1-4)GlcNAc", "outline": "as §1"}, "Kdn(a2-3)Gal(b1-3)GalNAc": {"biological_target": "Kdn(a2-3)Gal(b1-3)GalNAc", "outline": "as §1"}, "Kdn(a2-3)Gal(b1-3)GlcNAc": {"biological_target": "Kdn(a2-3)Gal(b1-3)GlcNAc", "outline": "as §1"}, "Kdn(a2-3)Gal(b1-4)Glc": {"biological_target": "Kdn(a2-3)Gal(b1-4)Glc", "outline": "as §1"}, "Kdn(a2-3)Gal(b1-4)GlcNAc": {"biological_target": "Kdn(a2-3)Gal(b1-4)GlcNAc", "outline": "as §1"}, "[17]": {"biological_target": "Kdn(a2-3)Gal(b1-4)[Fuc(a1-3)]GlcNAc", "outline": "as §1"}, "Kdn(a2-6)Gal(b1-4)GlcNAc": {"biological_target": "Kdn(a2-6)Gal(b1-4)GlcNAc", "outline": "as §1"}, "[18]": {"biological_target": "Man(a1-2)Man(a1-2)Man(a1-3)Man", "outline": "as §1"}, "[19]": {"biological_target": "Man(a1-2)Man(a1-2)Man(a1-6)[Man(a1-3)]Man", "outline": "as §1"}, "Man(a1-2)Man(a1-3)Man": {"biological_target": "Man(a1-2)Man(a1-3)Man", "outline": "as §1"}, "[20]": {"biological_target": "Man(a1-2)Man(a1-3)[Man(a1-2)Man(a1-6)]Man", "outline": "as §1"}, "[21]": {"biological_target": "Man(a1-2)Man(a1-3)[Man(a1-2)Man(a1-6)]Man(a1-6)[Man(a1-2)Man(a1-2)Man(a1-3)]Man", "outline": "as §1"}, "[22]": {"biological_target": "Man(a1-2)Man(a1-3)[Man(a1-2)Man(a1-6)]Man(a1-6)[Man(a1-2)Man(a1-2)Man(a1-3)]Man(b1-4)GlcNAc(b1-4)GlcNAc", "outline": "as §1"}, "[23]": {"biological_target": "Man(a1-2)Man(a1-3)[Man(a1-6)]Man(a1-6)[Man(a1-2)Man(a1-3)]Man(b1-4)GlcNAc(b1-4)GlcNAc", "outline": "as §1"}, "[24]": {"biological_target": "Man(a1-2)Man(a1-6)[Man(a1-3)]Man(a1-6)[Man(a1-2)Man(a1-2)Man(a1-3)]Man", "outline": "as §1"}, "[25]": {"biological_target": "Man(a1-2)Man(a1-6)[Man(a1-3)]Man(a1-6)[Man(a1-2)Man(a1-2)Man(a1-3)]Man(b1-4)GlcNAc(b1-4)GlcNAc", "outline": "as §1"}, "Man(a1-3)[Man(a1-6)]Man": {"biological_target": "Man(a1-3)[Man(a1-6)]Man", "outline": "as §1"}, "[26]": {"biological_target": "Man(a1-3)[Man(a1-6)]Man(a1-6)[Man(a1-2)Man(a1-3)]Man(b1-4)GlcNAc(b1-4)GlcNAc", "outline": "as §1"}}, "note": "The other results are listed elsewhere or left out.", "data": [{"binder": "B1", "values": [{"measurement": "glycan array binding signal (z-score)", "setting": "[1]", "result": -0.009}, {"measurement": "glycan array binding signal (z-score)", "setting": "[2]", "result": -0.148}, {"measurement": "glycan array binding signal (z-score)", "setting": "[3]", "result": -0.093}, {"measurement": "glycan array binding signal (z-score)", "setting": "[4]", "result": -0.09}, {"measurement": "glycan array binding signal (z-score)", "setting": "[5]", "result": -0.05}, {"measurement": "glycan array binding signal (z-score)", "setting": "[6]", "result": -0.168}, {"measurement": "glycan array binding signal (z-score)", "setting": "GlcNAc(b1-3)GalNAc", "result": -0.107}, {"measurement": "glycan array binding signal (z-score)", "setting": "GlcNAc(b1-3)Man", "result": -0.145}, {"measurement": "glycan array binding signal (z-score)", "setting": "[7]", "result": -0.13}, {"measurement": "glycan array binding signal (z-score)", "setting": "[8]", "result": -0.073}, {"measurement": "glycan array binding signal (z-score)", "setting": "[9]", "result": -0.055}, {"measurement": "glycan array binding signal (z-score)", "setting": "[10]", "result": -0.122}, {"measurement": "glycan array binding signal (z-score)", "setting": "GlcNAc(b1-4)GlcNAc", "result": -0.063}, {"measurement": "glycan array binding signal (z-score)", "setting": "[11]", "result": 0.013}, {"measurement": "glycan array binding signal (z-score)", "setting": "[12]", "result": -0.087}, {"measurement": "glycan array binding signal (z-score)", "setting": "[13]", "result": -0.132}, {"measurement": "glycan array binding signal (z-score)", "setting": "[14]", "result": -0.196}, {"measurement": "glycan array binding signal (z-score)", "setting": "[15]", "result": -0.018}, {"measurement": "glycan array binding signal (z-score)", "setting": "GlcNAc(b1-6)GalNAc", "result": -0.108}, {"measurement": "glycan array binding signal (z-score)", "setting": "[16]", "result": -0.084}, {"measurement": "glycan array binding signal (z-score)", "setting": "Kdn(a2-3)Gal(b1-3)GalNAc", "result": -0.035}, {"measurement": "glycan array binding signal (z-score)", "setting": "Kdn(a2-3)Gal(b1-3)GlcNAc", "result": -0.055}, {"measurement": "glycan array binding signal (z-score)", "setting": "Kdn(a2-3)Gal(b1-4)Glc", "result": -0.155}, {"measurement": "glycan array binding signal (z-score)", "setting": "Kdn(a2-3)Gal(b1-4)GlcNAc", "result": -0.061}, {"measurement": "glycan array binding signal (z-score)", "setting": "[17]", "result": -0.11}, {"measurement": "glycan array binding signal (z-score)", "setting": "Kdn(a2-6)Gal(b1-4)GlcNAc", "result": -0.141}, {"measurement": "glycan array binding signal (z-score)", "setting": "[18]", "result": -0.128}, {"measurement": "glycan array binding signal (z-score)", "setting": "[19]", "result": -0.126}, {"measurement": "glycan array binding signal (z-score)", "setting": "Man(a1-2)Man(a1-3)Man", "result": -0.171}, {"measurement": "glycan array binding signal (z-score)", "setting": "[20]", "result": -0.167}, {"measurement": "glycan array binding signal (z-score)", "setting": "[21]", "result": -0.108}, {"measurement": "glycan array binding signal (z-score)", "setting": "[22]", "result": -0.146}, {"measurement": "glycan array binding signal (z-score)", "setting": "[23]", "result": -0.161}, {"measurement": "glycan array binding signal (z-score)", "setting": "[24]", "result": -0.138}, {"measurement": "glycan array binding signal (z-score)", "setting": "[25]", "result": -0.04}, {"measurement": "glycan array binding signal (z-score)", "setting": "Man(a1-3)[Man(a1-6)]Man", "result": -0.152}, {"measurement": "glycan array binding signal (z-score)", "setting": "[26]", "result": -0.011}]}]}
